{"source": "PubChem BioAssay AID504832", "about": "(National Center for Advancing Translational Sciences (NCATS), 2011)", "note": "Several values for one entry are separate records, joined by “and”; a condition that tells them apart may be missing. Identical values can stand only once. In all, about 310,000 compounds went through this assay and about 18,000 (5.8%) were called active. The shares of active, inactive and inconclusive entries below differ from those in the screen. The call rests on the fitted dose curve; in most records, active means well fitted inhibition curve with a large enough effect; inconclusive means small, poorly fitted or top-dose-only effect, or another doubt; inactive means no such curve, though single readings can be large or run the other way. A potency beside an inconclusive call is a rough fit, not a confirmed value. Potency means the concentration at half of the fitted maximal effect; tags describe the fitted curve by direction and shape."}
{"assay": "Primary qHTS for delayed death inhibitors of the malarial parasite plastid, 48 hour incubation", "settings": "P. falciparum luciferase growth in erythrocytes; series mostly up to 28.7 µM", "method_in_brief": "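Luminescence readout; reporter = integrated firefly luciferase in P. falciparum. RBC culture at 2% hematocrit, 0.1% parasitemia final, 37 C/5% CO2; decreased signal taken as growth inhibition.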"}
{"smiles": "CCOc1ccc(N(CC(=O)NC2CCCCC2C)S(=O)(=O)c2c(C)noc2C)cc1", "note": "(stereo not drawn)", "Potency": "inconclusive: 18.5 µM [inhibitor, single point]"}
{"smiles": "COc1ccc(N(C)S(=O)(=O)c2cccc(C(=O)N3CCN(c4ccccc4)CC3)c2)cc1", "Potency": "active: 10.4 µM"}
{"smiles": "COc1ccc(N=C/C=C2\\C=C(c3ccccc3)OC(C)(C)O2)cc1", "Potency": "inconclusive: 10.4 µM [inhibitor, partial curve, poor fit]"}
{"smiles": "COc1ccc(N2CCN(Cc3nc4ccccc4n3C)CC2)cc1", "Potency": "inactive"}
{"smiles": "CCOc1c(Cl)cc(CNC(C)(C)CC(C)(C)C)cc1OC", "Potency": "active: 10.4 µM"}
{"smiles": "Cc1ccc(C)c2[nH]c(=O)c(CCNC(=O)c3ccc(S(=O)(=O)N4CCOCC4)cc3)cc12", "Potency": "inconclusive: 16.5 µM [inhibitor, partial curve, poor fit]"}
{"smiles": "Cc1cc(Cl)nc2ccc(Cc3ccc4nc(Cl)cc(C)c4c3)cc12", "Potency": "active: 2.62 µM"}
{"smiles": "Cc1nnc2sc(SCc3ccc(Br)cc3)nn2c1=O", "Potency": "inconclusive: 1.65 µM [inhibitor, full curve, poor fit]"}
{"smiles": "CC(=O)c1c(C)[nH]c(C(=O)OCC(=O)NCCC2=CCCCC2)c1C", "Potency": "active: 13.1 µM"}
{"smiles": "Cc1cc2ccccn2c1C(=O)c1cc([N+](=O)[O-])cc([N+](=O)[O-])c1", "Potency": "inconclusive: 11.7 µM [inhibitor, partial curve, poor fit]"}
{"smiles": "S=C(NCc1ccccc1Cl)NC1CCCC1", "Potency": "inactive"}
{"smiles": "O=[N+]([O-])c1cc(C(F)(F)F)cc([N+](=O)[O-])c1NCCNC(=S)Nc1ccc(Cl)c(Cl)c1", "Potency": "active: 9.28 µM"}
{"smiles": "COc1cccc(CNC(=O)C2=Cc3cccc(OC)c3OC2)c1", "Potency": "inactive"}
{"smiles": "O=c1ccn(-c2cccc(C(F)(F)F)c2)nc1-c1ccn(-c2ccccc2)n1", "Potency": "active: 10.4 µM"}
{"smiles": "c1ccc(-c2nnc(N3CCN(c4ccccn4)CC3)c3ccccc23)cc1", "Potency": "active: 7.38 µM"}
{"smiles": "Cc1nnc(SCC(=O)Nc2nnc(SCc3cccc(Br)c3)s2)s1", "Potency": "inactive"}
{"smiles": "CCCCSc1nc(C)cc(SCC(=O)N/N=C/c2cccc(OC)c2O)n1", "Potency": "inconclusive: 18.5 µM [inhibitor, single point]"}
{"smiles": "COc1ccc(S(=O)(=O)N2CCCCCC2)cc1C(=O)NCc1cccs1", "Potency": "active: 14.7 µM"}
{"smiles": "CCCCN(C(=O)C1CSC2(C)CCC(=O)N12)c1c(N)n(CC(C)C)c(=O)[nH]c1=O", "note": "(stereo not drawn)", "Potency": "inconclusive: 18.5 µM [inhibitor, single point]"}
{"smiles": "Cc1nnsc1C(=O)N/N=C/c1ccc2ccccc2c1O", "Potency": "active: 2.62 µM"}
{"smiles": "O=C(Nc1ccc(S(=O)(=O)N2CCCCC2)cc1)C1CCN(C(=O)c2ccc(F)cc2)CC1", "Potency": "active: 9.28 µM"}
{"smiles": "Nc1c(Cl)ncnc1N/N=C/c1ccc2ccccc2n1", "Potency": "inconclusive: 9.28 µM [inhibitor, single point]"}
{"smiles": "O=C(c1ccc(F)cc1)N1CCC(C(=O)N2CCN(S(=O)(=O)c3cccc([N+](=O)[O-])c3)CC2)CC1", "Potency": "inconclusive: 0.0465 µM [inhibitor, full curve, poor fit]"}
{"smiles": "Cc1cc(SC(C)C(=O)Nc2c(C)n(C)n(-c3ccccc3)c2=O)nc2ccccc12", "note": "(stereo not drawn)", "Potency": "inconclusive: 4.65 µM [inhibitor, partial curve, poor fit]"}
{"smiles": "c1coc(-c2nc3nc4ccccc4n3nc2-c2ccco2)c1", "Potency": "inconclusive: 3.29 µM [inhibitor, partial curve, poor fit]"}
{"smiles": "COc1ccc(C(=O)Nc2ccccc2SCc2cc(=O)n3nc(C)sc3n2)cc1OC", "Potency": "inactive"}
{"smiles": "CN(CC1CCCO1)S(=O)(=O)c1ccc(C(=O)Nc2nc3cc4c(cc3s2)OCO4)cc1", "note": "(stereo not drawn)", "Potency": "inconclusive: 13.1 µM [inhibitor, single point]"}
{"smiles": "CC(C)NC(=O)C1CCN(C2CCN(C(=O)c3scc4c3CCCC4)CC2)CC1", "Potency": "inconclusive: 11.7 µM [inhibitor, partial curve]"}
{"smiles": "CC(C)c1nc(SCC(=O)Nc2ccc([N+](=O)[O-])cc2Br)n[nH]1", "Potency": "inconclusive: 14.7 µM [inhibitor, single point]"}
{"smiles": "Cc1ccc2nc(SCC(=O)Nc3ccccc3N3CCOCC3)c(C#N)cc2c1", "Potency": "active: 7.38 µM"}
{"smiles": "COc1ccc(N(C(=O)c2cccnc2)S(=O)(=O)c2cccs2)cc1", "Potency": "inactive"}
{"smiles": "COc1cccc(/C=N/Nc2ncnc(N)c2[N+](=O)[O-])c1OC", "Potency": "inactive"}
{"smiles": "O=C(COC(=O)/C=C/c1ccco1)NCc1ccc(Cl)cc1", "Potency": "inactive"}
{"smiles": "CN1CCN(c2nc(-c3ccccc3Cl)nc3ccccc23)CC1", "Potency": "inactive"}
{"smiles": "COCCCn1nnnc1SCC(=O)Nc1nc2ccccc2s1", "Potency": "inactive"}
{"smiles": "CNc1cc(CSC)nc(SCc2ccc(Cl)cc2Cl)n1", "Potency": "inconclusive: 0.0928 µM [inhibitor, full curve]"}
{"smiles": "O=C(NC1CCCC1)C1CCN(C(=O)c2ccc(Cl)cc2Cl)CC1", "Potency": "inactive"}
{"smiles": "Cc1ccc(CN(C(=O)c2csnn2)C(C(=O)NC2CCCC2)c2ccccn2)cc1", "note": "(stereo not drawn)", "Potency": "inconclusive: 13.1 µM [inhibitor, single point]"}
{"smiles": "O=C(NCC(c1ccco1)N1CCN(c2ccccc2)CC1)C(=O)NC1CCCCC1", "note": "(stereo not drawn)", "Potency": "inactive"}
{"smiles": "C[N+](C)(C)CCN(Cc1ccc(Cl)cc1)c1ccccn1", "Potency": "active: 6.57 µM"}
{"smiles": "CCOC(=O)N1CCN(Cc2cc(=O)oc3ccc(Cl)cc23)CC1", "Potency": "inconclusive: 13.1 µM [inhibitor, single point]"}
{"smiles": "CCOC(=O)CNC(=S)N(Cc1cccs1)C1CCCC1", "Potency": "inconclusive: 14.7 µM [inhibitor, partial curve, poor fit]"}
{"smiles": "Cc1ccc(S(=O)(=O)N2CCOCC2)cc1C(=O)NCc1ccco1", "Potency": "inconclusive: 0.738 µM [inhibitor, full curve, poor fit]"}
{"smiles": "O=C(c1cc2c(=O)n3ccccc3nc2s1)N1CCN(c2cccc(Cl)c2)CC1", "Potency": "inactive"}
{"smiles": "CCOC(=O)Cc1nnc(NC(=O)C2CCCCC2)s1", "Potency": "inactive"}
{"smiles": "O=C(N/N=C/c1cn(-c2ccccc2)nc1-c1ccccc1)c1ccco1", "Potency": "active: 3.29 µM"}
{"smiles": "Cc1ccc2[nH]c3c(=O)n(Cc4ccccn4)cnc3c2c1", "Potency": "inconclusive: 14.7 µM [inhibitor, partial curve]"}
{"smiles": "BrCC1C[n+]2c(SCc3ccccc3)nc3sc4c(c3c2O1)CCCC4", "note": "(stereo not drawn)", "Potency": "inactive"}
{"smiles": "CC(C)(C)c1ccc(-c2c(C#N)c(N)nc3c2CCCC3)s1", "Potency": "inconclusive: 4.15 µM [inhibitor, single point]"}
{"smiles": "CN1CCN(C(c2ccccn2)c2cc(Cl)c3cccnc3c2O)CC1", "note": "(stereo not drawn)", "Potency": "active: 4.65 µM"}
{"smiles": "C=C(C)CSC1=C(C#N)C(c2ccccc2Cl)CC(=O)N1", "note": "(stereo not drawn)", "Potency": "inconclusive: 10.4 µM [inhibitor, single point]"}
{"smiles": "Cc1nn(C)c(C)c1CN(C(=O)C1CCC(=O)N(C2CCCCCC2)C1)C(C)C", "note": "(stereo not drawn)", "Potency": "inconclusive: 18.5 µM [inhibitor, single point]"}
{"smiles": "CCC1(c2ccccc2)NC(=O)N(CC(=O)NCc2ccc(OC)cc2)C1=O", "note": "(stereo not drawn)", "Potency": "inconclusive: 18.5 µM [inhibitor, single point]"}
{"smiles": "COc1ccc(NC2CCCN(C(=O)c3cccs3)C2)cc1", "note": "(stereo not drawn)", "Potency": "inactive"}
{"smiles": "Cc1cc(C)c2[nH]c3nc(SCC(=O)O)nnc3c2c1", "Potency": "inconclusive: 1.17 µM [inhibitor, partial curve, poor fit]"}
{"smiles": "CC(=O)Nc1ccc(NC(=O)CCCSc2nc3ccccc3s2)cc1", "Potency": "inactive"}
{"smiles": "CC(=O)Nc1sc2c(c1CN1CCCC1)CCCC2", "Potency": "inconclusive: 11.7 µM [inhibitor, single point]"}
{"smiles": "O=C(C1=C[C@H](c2ccccc2)C[C@H](OCCCCO)O1)N1CCN(Cc2ccc3c(c2)OCO3)CC1", "Potency": "inconclusive: 6.57 µM [inhibitor, partial curve]"}
{"smiles": "CCOC(=O)c1c2c(c(=S)n(-c3ccccc3)c1N)CCC2", "Potency": "inconclusive: 11.7 µM [inhibitor, single point]"}
{"smiles": "CC(CC(=O)Nc1ccc(S(=O)(=O)N2CCOCC2)cc1)c1ccccc1", "note": "(stereo not drawn)", "Potency": "active: 3.29 µM"}
{"smiles": "CCCCc1ccc(C(=O)O)nc1", "Potency": "inactive and inconclusive: 18.5 µM [inhibitor, single point]"}
{"smiles": "CCOc1ccc(N(CC(=O)NCCOc2ccc(C)cc2)S(=O)(=O)c2ccccc2)cc1", "Potency": "active: 10.4 µM"}
{"smiles": "COC(=O)[C@H]1[C@H]2C[C@H]3c4[nH]c5ccccc5c4CCN3C[C@@H]2CC[C@@H]1O", "Potency": "inconclusive: 20.8 µM [inhibitor, partial curve, poor fit]"}
{"smiles": "CC(=O)Nc1cccc(Oc2cc(C#N)c(C#N)cc2N2CCOCC2)c1", "Potency": "inconclusive: 8.28 µM [inhibitor, partial curve, poor fit]"}
{"smiles": "O=C1c2ccccc2C(=O)N1CCCCN(C(=O)c1ccc(Cl)s1)c1ccc(Cl)cc1", "Potency": "inactive"}
{"smiles": "O=C(N/N=C/c1ccccn1)c1sc2ccccc2c1Cl", "Potency": "inconclusive: 13.1 µM [inhibitor, partial curve, poor fit]"}
{"smiles": "Cc1ccc(S(=O)(=O)NC(=O)COc2cc(C)ccc2C(C)C)cc1", "Potency": "inactive"}
{"smiles": "Cc1nn(C)c(C(=O)NNC(=O)NC2CCCCC2)c1Cl", "Potency": "inactive"}
{"smiles": "CCc1ccc(CN(C(=O)c2oc3ccccc3c2C)C2CCS(=O)(=O)C2)cc1", "note": "(stereo not drawn)", "Potency": "inconclusive: 11.7 µM [inhibitor, single point]"}
{"smiles": "CC(CCN1C(Nc2ccccc2)=NC[C@@H]1Cc1ccccc1)c1ccccc1", "note": "(stereo partly drawn)", "Potency": "inconclusive: 10.4 µM [inhibitor, partial curve, poor fit]"}
{"smiles": "Cc1ccc(C)c(N2CN(CCC3=CCCCC3)CNC2=S)c1", "Potency": "inconclusive: 2.94 µM [inhibitor, single point]"}
{"smiles": "CCCCc1nc2sc3c(=O)[nH]cnc3c2c2c1CCCC2", "Potency": "inactive"}
{"smiles": "Cc1ccc(Nc2nc(N)nc(CN3CCc4ccccc4C3)n2)cc1", "Potency": "inconclusive: 18.5 µM [inhibitor, single point]"}
